We go through 43 compounds from ChEMBL document CHEMBL4888484, “Replenishing the malaria drug discovery pipeline: Screening and hit evaluation of the MMV Hit Generation Library 1 (HGL1) against asexual blood stage Plasmodium falciparum ,using a nano luciferase reporter read-out” (2022).

SMILES strings stand for the structures. Out of some 150,000 compounds screened, about 540 (0.36%) showed an effect of 50% or more. This is one part of the list.

The subject of the assay is Plasmodium falciparum. The assay is described as follows: Primary screen in NF54 nanoGlo assay, in single point, at 2uM, 72h; a lower Z score goes with more inhibition. The class given is functional, Erythrocyte. To be noted: timepoint 72 hour.
By % Inhibition is commonly meant the drop in the measured response relative to a control, in per cent. For the compound `CNS(=O)(=O)N1CCC[C@H](Nc2cccc(Br)c2)C1`, the “% Inhibition” value is 1% and the Z score is -0.12.

Regarding `CN(C)C(=O)CN(C)c1ccc(F)cc1S(=O)(=O)C(F)(F)F`, the “% Inhibition” value is -10% and the Z score is recorded as 1.96.

As for `O=C(NCc1ccc(Cn2ccnc2)cc1)C1CCCCC1C(=O)N1CCc2ccccc21` (stereo unspecified), the “% Inhibition” value is 33% and the Z score is -3.7.

As to `O=C(Cn1c(=O)n(CCc2cccs2)c(=O)c2sccc21)N1CCN(Cc2ccccc2)CC1`, the “% Inhibition” value worked out at 0% and the Z score amounted to 0.05.

As to `Cc1n[nH]c(C)c1CNCc1cccnc1N1CCOCC1`, the “% Inhibition” value is recorded as 2% and the Z score is recorded as -0.35.

`CCOc1ncccc1-c1nc(C(C)(C)NC(=O)OC(C)(C)C)no1`: the “% Inhibition” value is -13% and the Z score turned out to be 2.59.

`COCc1c(C(=O)N(C)[C@H]2CCOC2)cnn1-c1ncc2c(n1)-c1ccccc1CCC2`: the “% Inhibition” value was -7% and the Z score was 0.88.

For the compound `COc1ccc(Cl)cc1NC(=O)CN1c2ccccc2C[C@H]1C(N)=O`, the “% Inhibition” value is -11% and the Z score was 1.8.

Consider `Cn1cc(CNc2ccc(-n3nccc3C(F)(F)F)cc2)cn1`, for which the “% Inhibition” value is reported as -14% and the Z score is on record as 1.55.

With `CC(C)Oc1cccc2c1c(NC(=O)N(C)C)nn2-c1cccc(F)c1`, the “% Inhibition” value is on record as 7% and the Z score is reported as -1.34.

In the case of `COc1ccsc1S(=O)(=O)N(C)Cc1cnc(C)s1`, the “% Inhibition” value is recorded as -10% and the Z score came to 1.22.

On to `Cc1ccn(C)c(=O)c1NC(=O)N1CCCC[C@H]1C(C)C`, for which the “% Inhibition” value is on record as -18% and the Z score is listed as 1.58.

For the compound `Cn1cc(-c2noc(C3(C#N)CCCCC3)n2)nn1`, the “% Inhibition” value stood at 34% and the Z score is reported as -3.82.

With `O=C(NCc1cccc(F)c1)C1CCC(c2ccccc2)N(C(=O)Cc2cccs2)C1` (stereo unspecified), the “% Inhibition” value was found to be 4% and the Z score is on record as -0.45.

For `Cc1cnc(C2CC2)n1[C@H]1CCN(C(=O)CCc2c[nH]c3ccccc23)C1`, the “% Inhibition” value was -20% and the Z score came out at 2.54.

For `COc1ccc2cc(C(=O)NCc3cnc4cnccn34)n(C)c2c1`, the “% Inhibition” value is -5% and the Z score stood at 0.61.

With `Cc1cccc2c1C(C)CC2NCc1ncnn1C` (stereo unspecified), the “% Inhibition” value is on record as -13% and the Z score worked out at 2.03.

With `CC(C)C(C(=O)N1CCCC1C(=O)O)n1c(=O)[nH]c2ccccc2c1=O` (stereo unspecified), the “% Inhibition” value is on record as -5% and the Z score is given as 0.78.

Take `CC1CN(C(=O)C2CCc3[nH]nnc3C2)CCN1c1ccccc1F` (stereo unspecified): the “% Inhibition” value is reported as -8% and the Z score is 0.72.

For the compound `COc1ccc(NC(=O)[C@@]23CCC=C2N(C2CCCC2)C(=O)CC3)cc1`, the “% Inhibition” value is 0% and the Z score is listed as -0.04.

With `CN(C)C(=O)Cn1cccc(NC(=O)CNC(=O)OCc2ccccc2)c1=O`, the “% Inhibition” value was -11% and the Z score stood at 1.25.

In the case of `Cc1nc(C)c(-c2cccc3c2O[C@@H](CN)C3)s1`, the “% Inhibition” value is recorded as -5% and the Z score was found to be 0.68.

As to `CC1(C)CN(C(=O)Cn2nccn2)C[C@]1(C)O`, the “% Inhibition” value is given as -8% and the Z score worked out at 0.73.

In the case of `CC(O)CC(C)CNCc1sccc1Cl` (stereo unspecified), the “% Inhibition” value stood at 6% and the Z score is reported as -0.81.

Consider `Cc1csc(NC(=O)C[C@H](C)n2cccn2)n1`, for which the “% Inhibition” value is -1% and the Z score is reported as 0.17.

`O=C(c1ccccc1F)N1CCC[C@H](CN2CCCC2)CC1`: the “% Inhibition” value is given as -4% and the Z score is listed as 0.64.

For `CN1CCN(C(=O)[C@@H]2Cc3ccccc3O2)C(C)(C)C1=O`, the “% Inhibition” value is -6% and the Z score was found to be 1.23.

As for `Cc1ccc(S(=O)(=O)N2CCC[C@H](Cn3c(C)nc4cccnc43)C2)cc1F`, the “% Inhibition” value is -2% and the Z score came out at 0.32.

On to `COc1cccc(CN2C(=O)NC3(CCC4(CC3)OCCO4)C2=O)c1Cl`, for which the “% Inhibition” value is recorded as -10% and the Z score is recorded as 1.83.

With `CC1CCN(c2ncnc(Oc3ccccc3F)c2N)CC1`, the “% Inhibition” value was determined as 6% and the Z score is on record as -1.23.

With `Cc1ncsc1C(=O)N1CCCCCC1`, the “% Inhibition” value is on record as -2% and the Z score stood at 0.28.

For the compound `CCn1nc(C)cc1C(=O)N1CCCC[C@@H]1CCn1ccnc1`, the “% Inhibition” value is on record as -8% and the Z score turned out to be 1.53.

In the case of `C[C@H]1CCCN(C(=O)c2ncccn2)C1`, the “% Inhibition” value was -8% and the Z score stood at 1.54.

Consider `CNC(=O)[C@@H]1C[C@@H](NC(=O)c2sc(C)nc2C)CN1CCOC`, for which the “% Inhibition” value was -17% and the Z score is listed as 1.67.

As to `O=C1CCn2c(CNc3ccccc3)ccc21`, the “% Inhibition” value is reported as -3% and the Z score is 0.35.

As to `CN1CCC(CCN(C)Cc2cc3ccccc3s2)CC1`, the “% Inhibition” value came out at 3% and the Z score is on record as -0.49.

Turning to `OC(COCc1ccc2c(c1)OCO2)CN1CCCC(c2nc3ccccc3s2)C1` (stereo unspecified), the “% Inhibition” value is reported as -2% and the Z score was 0.22.

With `CCc1ocnc1C(=O)N1CCCCCCC1`, the “% Inhibition” value is -15% and the Z score is given as 1.38.

For `COc1cc(-c2nc3c([nH]2)c(-c2ccccc2)nn3C)cc2c1OCO2`, the “% Inhibition” value was -4% and the Z score worked out at 0.58.

Consider `C[C@@H](Cc1cccc(C(F)(F)F)c1)N1CCC(n2cc(C(=O)N3CCCCC3)nn2)CC1`, for which the “% Inhibition” value was -12% and the Z score is 1.76.

Consider `CC(C)C[C@]1(CO)CCCN1C(=O)NCc1ncccc1S(C)(=O)=O`, for which the “% Inhibition” value was determined as 11% and the Z score was -1.41.

In the case of `CCC(C)NC(=O)C(CC(N)=O)NC(=O)Cc1cccc(F)c1` (stereo unspecified), the “% Inhibition” value is listed as 13% and the Z score is reported as -1.46.

Take `COc1ccc(Cl)cc1NC(=O)N1CCC(c2nnc(-c3ccsc3)o2)CC1`: the “% Inhibition” value stood at 11% and the Z score was -1.24.
